Results published in the supplement of paper PMC8728848.
This is one part of the list.

Experiments:
Assay in all cases: glycan array binding signal (z-score within array); higher = stronger binding
Settings in all cases: glycan notation: IUPAC condensed, linker removed; mutation: E41G
[1] = target: Neu5Ac(a2-6)Gal(b1-3)GlcNAc(b1-3)[Gal(b1-4)GlcNAc(b1-6)]Gal(b1-4)Glc
Outline: (§1)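 From the Consortium for Functional Glycomics database, 3228 arrays were curated, keeping only those whose protein sequence was available. Binding is given as a within-array Z-score averaged across arrays sharing a protein sequence and across linkers. Negative Z-scores can be read as non-binding.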

Neu5Ac(a2-6)Gal(b1-4)Glc = target: Neu5Ac(a2-6)Gal(b1-4)Glc
Outline: as §1

[2] = target: Neu5Ac(a2-6)Gal(b1-4)GlcNAc
Outline: as §1

[3] = target: Neu5Ac(a2-6)Gal(b1-4)GlcNAc(b1-2)Man
Outline: as §1

[4] = target: Neu5Ac(a2-6)Gal(b1-4)GlcNAc(b1-2)Man(a1-3)Man(b1-4)GlcNAc(b1-4)GlcNAc
Outline: as §1

[5] = target: Neu5Ac(a2-6)Gal(b1-4)GlcNAc(b1-2)Man(a1-3)[Gal(b1-4)GlcNAc(b1-2)Man(a1-6)]Man(b1-4)GlcNAc(b1-4)GlcNAc
Outline: as §1

[6] = target: Neu5Ac(a2-6)Gal(b1-4)GlcNAc(b1-2)Man(a1-3)[GlcNAc(b1-4)][Neu5Ac(a2-6)Gal(b1-4)GlcNAc(b1-2)Man(a1-6)]Man(b1-4)GlcNAc(b1-4)GlcNAc
Outline: as §1

[7] = target: Neu5Ac(a2-6)Gal(b1-4)GlcNAc(b1-2)Man(a1-3)[Man(a1-6)]Man(b1-4)GlcNAc(b1-4)GlcNAc
Outline: as §1

[8] = target: Neu5Ac(a2-6)Gal(b1-4)GlcNAc(b1-2)Man(a1-3)[Neu5Ac(a2-3)Gal(b1-4)GlcNAc(b1-2)Man(a1-6)]Man(b1-4)GlcNAc(b1-4)GlcNAc
Outline: as §1

[9] = target: Neu5Ac(a2-6)Gal(b1-4)GlcNAc(b1-2)Man(a1-3)[Neu5Ac(a2-6)Gal(b1-4)GlcNAc(b1-2)Man(a1-6)]Man(b1-4)GlcNAc(b1-4)GlcNAc
Outline: as §1

[10] = target: Neu5Ac(a2-6)Gal(b1-4)GlcNAc(b1-2)Man(a1-3)[Neu5Ac(a2-6)Gal(b1-4)GlcNAc(b1-2)Man(a1-6)]Man(b1-4)GlcNAc(b1-4)[Fuc(a1-6)]GlcNAc
Outline: as §1

[11] = target: Neu5Ac(a2-6)Gal(b1-4)GlcNAc(b1-2)Man(a1-6)Man(b1-4)GlcNAc(b1-4)GlcNAc
Outline: as §1

[12] = target: Neu5Ac(a2-6)Gal(b1-4)GlcNAc(b1-2)Man(a1-6)[Gal(b1-4)GlcNAc(b1-2)Man(a1-3)]Man(b1-4)GlcNAc(b1-4)GlcNAc
Outline: as §1

[13] = target: Neu5Ac(a2-6)Gal(b1-4)GlcNAc(b1-2)Man(a1-6)[GlcNAc(b1-2)Man(a1-3)]Man(b1-4)GlcNAc(b1-4)GlcNAc
Outline: as §1

[14] = target: Neu5Ac(a2-6)Gal(b1-4)GlcNAc(b1-2)Man(a1-6)[Man(a1-3)]Man(b1-4)GlcNAc(b1-4)GlcNAc
Outline: as §1

[15] = target: Neu5Ac(a2-6)Gal(b1-4)GlcNAc(b1-2)[Neu5Ac(a2-6)Gal(b1-4)GlcNAc(b1-4)]Man(a1-3)[GlcNAc(b1-4)][Neu5Ac(a2-6)Gal(b1-4)GlcNAc(b1-2)[Neu5Ac(a2-6)Gal(b1-4)GlcNAc(b1-6)]Man(a1-6)]Man(b1-4)GlcNAc(b1-4)GlcNAc
Outline: as §1

[16] = target: Neu5Ac(a2-6)Gal(b1-4)GlcNAc(b1-2)[Neu5Ac(a2-6)Gal(b1-4)GlcNAc(b1-4)]Man(a1-3)[GlcNAc(b1-4)][Neu5Ac(a2-6)Gal(b1-4)GlcNAc(b1-4)Man(a1-6)]Man(b1-4)GlcNAc(b1-4)GlcNAc
Outline: as §1

[17] = target: Neu5Ac(a2-6)Gal(b1-4)GlcNAc(b1-2)[Neu5Ac(a2-6)Gal(b1-4)GlcNAc(b1-6)]Man(a1-6)[Neu5Ac(a2-6)Gal(b1-4)GlcNAc(b1-2)Man(a1-3)][GlcNAc(b1-4)]Man(b1-4)GlcNAc(b1-4)GlcNAc
Outline: as §1

[18] = target: Neu5Ac(a2-6)Gal(b1-4)GlcNAc(b1-3)Gal(b1-3)GlcNAc
Outline: as §1

[19] = target: Neu5Ac(a2-6)Gal(b1-4)GlcNAc(b1-3)Gal(b1-4)GlcNAc
Outline: as §1

[20] = target: Neu5Ac(a2-6)Gal(b1-4)GlcNAc(b1-3)Gal(b1-4)GlcNAc(b1-2)Man(a1-3)[Neu5Ac(a2-6)Gal(b1-4)GlcNAc(b1-3)Gal(b1-4)GlcNAc(b1-2)Man(a1-6)]GalNAc
Outline: as §1

[21] = target: Neu5Ac(a2-6)Gal(b1-4)GlcNAc(b1-3)Gal(b1-4)GlcNAc(b1-3)Gal(b1-4)GlcNAc
Outline: as §1

[22] = target: Neu5Ac(a2-6)Gal(b1-4)GlcNAc(b1-3)Gal(b1-4)GlcNAc(b1-3)Gal(b1-4)GlcNAc(b1-2)Man(a1-3)[Neu5Ac(a2-6)Gal(b1-4)GlcNAc(b1-3)Gal(b1-4)GlcNAc(b1-3)Gal(b1-4)GlcNAc(b1-2)Man(a1-6)]GalNAc
Outline: as §1

B1: CVN-E41G (protein)
chain: MHHHHHHENLYFQSGNFSQACYNSAIQGSVLTSTCIRTNGGYNTSSIDLNSVIGNVDGSLKWQGSNFIETCRNTQLAGSSELAAECKTRAQQFVSTKINLDDHIAAIDGTLKYE
Question: Which results are given for B1?
Answer: glycan array binding signal (z-score) [1]: -0.152; glycan array binding signal (z-score) (Neu5Ac(a2-6)Gal(b1-4)Glc): -0.153; glycan array binding signal (z-score) [2]: -0.163; glycan array binding signal (z-score) [3]: -0.159; glycan array binding signal (z-score) [4]: -0.172; glycan array binding signal (z-score) [5]: -0.149; glycan array binding signal (z-score) [6]: -0.147; glycan array binding signal (z-score) [7]: -0.159; glycan array binding signal (z-score) [8]: -0.146; glycan array binding signal (z-score) [9]: -0.15; glycan array binding signal (z-score) [10]: -0.065; glycan array binding signal (z-score) [11]: -0.156; glycan array binding signal (z-score) [12]: -0.16; glycan array binding signal (z-score) [13]: -0.07; glycan array binding signal (z-score) [14]: -0.166; glycan array binding signal (z-score) [15]: -0.163; glycan array binding signal (z-score) [16]: -0.14; glycan array binding signal (z-score) [17]: -0.139; glycan array binding signal (z-score) [18]: -0.168; glycan array binding signal (z-score) [19]: -0.191; glycan array binding signal (z-score) [20]: -0.13; glycan array binding signal (z-score) [21]: -0.177; glycan array binding signal (z-score) [22]: -0.112
